± gives the uncertainty stated by the source.

One series relates to HEK293T. Nature of the series: plasma membrane surface immunostaining intensity (anti-HA, deep receptor scanning) (arbitrary fluorescence units); higher = higher plasma membrane expression. As to conditions: GPCR class: A.
Turning to “MPFPNCSAPSTVVATAVGVLLGLECGLGLLGNAVALWTFLFRVRVWKPYAVYLLNLALADLLLAACLPFLAAFYLSLQAWHLGRVGCWALHFLLDLSRSVGMAFLAAVALDRYLRVVHPRLKVNLLSPQAALGVSGLVWLLMVALTCPGLLISEAAQNSTRCHSFYSRADGSFSIIWQEALSCLQFVLPFGLIVFCNAGIIRALQKRLREPEKQPKLQRAQALVTLVVVLFALCFLPCFLARVLMHIFQNLGSCRALCAVAHTSDVTGSLTYLHSVLNPVVYCFSSPTFRSSYRRVFHTLRGKGQAAEPPDFNPRDSYS [GPR31]”, the “plasma membrane surface immunostaining intensity” value came out at 268 ± 21.

As for “MPGHNTSRNSSCDPIVTPHLISLYFIVLIGGLVGVISILFLLVKMNTRSVTTMAVINLVVVHSVFLLTVPFRLTYLIKKTWMFGLPFCKFVSAMLHIHMYLTFLFYVVILVTRYLIFFKCKDKVEFYRKLHAVAASAGMWTLVIVIVVPLVVSRYGIHEEYNEEHCFKFHKELAYTYVKIINYMIVIFVIAVAVILLVFQVFIIMLMVQKLRHSLLSHQEFWAQLKNLFFIGVILVCFLPYQFFRIYYLNVVTHSNACNSKVAFYNEIFLSVTAISCYDLLLFVFGGSHWFKQKIIGLWNCVLCR [GPR141]”, the “plasma membrane surface immunostaining intensity” value is 6452 ± 35.

As to “MPSVSPAGPSAGAVPNATAVTTVRTNASGLEVPLFHLFARLDEELHGTFPGLWLALMAVHGAIFLAGLVLNGLALYVFCCRTRAKTPSVIYTINLVVTDLLVGLSLPTRFAVYYGARGCLRCAFPHVLGYFLNMHCSILFLTCICVDRYLAIVRPEGSRRCRQPACARAVCAFVWLAAGAVTLSVLGVTGSRPCCRVFALTVLEFLLPLLVISVFTGRIMCALSRPGLLHQGRQRRVRAMQLLLTVLIIFLVCFTPFHARQVAVALWPDMPHHTSLVVYHVAVTLSSLNSCMDPIVYCFVTSGFQATVRGLFGQHGEREPSSGDVVSMHRSSKGSGRHHILSAGPHALTQALANGPEA [GPR20]”, the “plasma membrane surface immunostaining intensity” value was found to be 3750 ± 220.

On to “MQAAGHPEPLDSRGSFSLPTMGANVSQDNGTGHNATFSEPLPFLYVLLPAVYSGICAVGLTGNTAVILVILRAPKMKTVTNVFILNLAVADGLFTLVLPVNIAEHLLQYWPFGELLCKLVLAVDHYNIFSSIYFLAVMSVDRYLVVLATVRSRHMPWRTYRGAKVASLCVWLGVTVLVLPFFSFAGVYSNELQVPSCGLSFPWPEQVWFKASRVYTLVLGFVLPVCTICVLYTDLLRRLRAVRLRSGAKALGKARRKVTVLVLVVLAVCLLCWTPFHLASVVALTTDLPQTPLVISMSYVITSLSYANSCLNPFLYAFLDDNFRKNFRSILRC [NPBWR2]”, for which the “plasma membrane surface immunostaining intensity” value amounted to 444 ± 29.

On to “MQAVDNLTSAPGNTSLCTRDYKITQVLFPLLYTVLFFVGLITNGLAMRIFFQIRSKSNFIIFLKNTVISDLLMILTFPFKILSDAKLGTGPLRTFVCQVTSVIFYFTMYISISFLGLITIDRYQKTTRPFKTSNPKNLLGAKILSVVIWAFMFLLSLPNMILTNRQPRDKNVKKCSFLKSEFGLVWHEIVNYICQVIFWINFLIVIVCYTLITKELYRSYVRTRGVGKVPRKKVNVKVFIIIAVFFICFVPFHFARIPYTLSQTRDVFDCTAENTLFYVKESTLWLTSLNACLDPFIYFFLCKSFRNSLISMLKCPNSATSLSQDNRKKEQDGGDPNEETPM [P2RY12]”, for which the “plasma membrane surface immunostaining intensity” value came to 6070 ± 87.

Regarding “MSAPSTLPPGGEEGLGTAWPSAANASSAPAEAEEAVAGPGDARAAGMVAIQCIYALVCLVGLVGNALVIFVILRYAKMKTATNIYLLNLAVADELFMLSVPFVASSAALRHWPFGSVLCRAVLSVDGLNMFTSVFCLTVLSVDRYVAVVHPLRAATYRRPSVAKLINLGVWLASLLVTLPIAIFADTRPARGGQAVACNLQWPHPAWSAVFVVYTFLLGFLLPVLAIGLCYLLIVGKMRAVALRAGWQQRRRSEKKITRLVLMVVVVFVLCWMPFYVVQLLNLFVTSLDATVNHVSLILSYANSCANPILYGFLSDNFRRFFQRVLCLRCCLLEGAGGAEEEPLDYYATALKSKGGAGCMCPPLPCQQEALQPEPGRKRIPLTRTTTF [SSTR4]”, the “plasma membrane surface immunostaining intensity” value worked out at 5790 ± 75.

For the sequence “MSDERRLPGSAVGWLVCGGLSLLANAWGILSVGAKQKKWKPLEFLLCTLAATHMLNVAVPIATYSVVQLRRQRPDFEWNEGLCKVFVSTFYTLTLATCFSVTSLSYHRMWMVCWPVNYRLSNAKKQAVHTVMGIWMVSFILSALPAVGWHDTSERFYTHGCRFIVAEIGLGFGVCFLLLVGGSVAMGVICTAIALFQTLAVQVGRQADRRAFTVPTIVVEDAQGKRRSSIDGSEPAKTSLQTTGLVTTIVFIYDCLMGFPVLVVSFSSLRADASAPWMALCVLWCSVAQALLLPVFLWACDRYRADLKAVREKCMALMANDEESDDETSLEGGISPDLVLERSLDYGYGGDFVALDRMAKYEISALEGGLPQLYPLRPLQEDKMQYLQVPPTRRFSHDDADVWAAVPLPAFLPRWGSGEDLAALAHLVLPAGPERRRASLLAFAEDAPPSRARRRSAESLLSLRPSALDSGPRGARDSPPGSPRRRPGPGPRSASASLLPDAFALTAFECEPQALRRPPGPFPAAPAAPDGADPGEAPTPPSSAQRSPGPRPSAHSHAGSLRPGLSASWGEPGGLRAAGGGGSTSSFLSSPSESSGYATLHSDSLGSAS [GPR153]”, the “plasma membrane surface immunostaining intensity” value was 3830 ± 610.

For “MSGMEKLQNASWIYQQKLEDPFQKHLNSTEEYLAFLCGPRRSHFFLPVSVVYVPIFVVGVIGNVLVCLVILQHQAMKTPTNYYLFSLAVSDLLVLLLGMPLEVYEMWRNYPFLFGPVGCYFKTALFETVCFASILSITTVSVERYVAILHPFRAKLQSTRRRALRILGIVWGFSVLFSLPNTSIHGIKFHYFPNGSLVPGSATCTVIKPMWIYNFIIQVTSFLFYLLPMTVISVLYYLMALRLKKDKSLEADEGNANIQRPCRKSVNKMLFVLVLVFAICWAPFHIDRLFFSFVEEWSESLAAVFNLVHVVSGVFFYLSSAVNPIIYNLLSRRFQAAFQNVISSFHKQWHSQHDPQLPPAQRNIFLTECHFVELTEDIGPQFPCQSSMHNSHLPAALSSEQMSRTNYQSFHFNKT [NMUR2]”, the “plasma membrane surface immunostaining intensity” value turned out to be 467 ± 39.

In the case of “MSKRSWWAGSRKPPREMLKLSGSDSSQSMNGLEVAPPGLITNFSLATAEQCGQETPLENMLFASFYLLDFILALVGNTLALWLFIRDHKSGTPANVFLMHLAVADLSCVLVLPTRLVYHFSGNHWPFGEIACRLTGFLFYLNMYASIYFLTCISADRFLAIVHPVKSLKLRRPLYAHLACAFLWVVVAVAMAPLLVSPQTVQTNHTVVCLQLYREKASHHALVSLAVAFTFPFITTVTCYLLIIRSLRQGLRVEKRLKTKAVRMIAIVLAIFLVCFVPYHVNRSVYVLHYRSHGASCATQRILALANRITSCLTSLNGALDPIMYFFVAEKFRHALCNLLCGKRLKGPPPSFEGKTNESSLSAKSEL [GPR17]”, the “plasma membrane surface immunostaining intensity” value came to 293 ± 22.

Take “MSLNSSLSCRKELSNLTEEEGGEGGVIITQFIAIIVITIFVCLGNLVIVVTLYKKSYLLTLSNKFVFSLTLSNFLLSVLVLPFVVTSSIRREWIFGVVWCNFSALLYLLISSASMLTLGVIAIDRYYAVLYPMVYPMKITGNRAVMALVYIWLHSLIGCLPPLFGWSSVEFDEFKWMCVAAWHREPGYTAFWQIWCALFPFLVMLVCYGFIFRVARVKARKVHCGTVVIVEEDAQRTGRKNSSTSTSSSGSRRNAFQGVVYSANQCKALITILVVLGAFMVTWGPYMVVIASEALWGKSSVSPSLETWATWLSFASAVCHPLIYGLWNKTVRKELLGMCFGDRYYREPFVQRQRTSRLFSISNRITDLGLSPHLTALMAGGQPLGHSSSTGDTGFSCSQDSGTDMMLLEDYTSDDNPPSHCTCPPKRRSSVTFEDEVEQIKEAAKNSILHVKAEVHKSLDSYAASLAKAIEAEAKINLFGEEALPGVLVTARTVPGGGFGGRRGSRTLVSQRLQLQSIEEGDVLAAEQR [GPR161]”: the “plasma membrane surface immunostaining intensity” value worked out at 4530 ± 950.

Take “MSLPNSSCLLEDKMCEGNKTTMASPQLMPLVVVLSTICLVTVGLNLLVLYAVRSERKLHTVGNLYIVSLSVADLIVGAVVMPMNILYLLMSKWSLGRPLCLFWLSMDYVASTASIFSVFILCIDRYRSVQQPLRYLKYRTKTRASATILGAWFLSFLWVIPILGWNHFMQQTSVRREDKCETDFYDVTWFKVMTAIINFYLPTLLMLWFYAKIYKAVRQHCQHRELINRSLPSFSEIKLRPENPKGDAKKPGKESPWEVLKRKPKDAGGGSVLKSPSQTPKEMKSPVVFSQEDDREVDKLYCFPLDIVHMQAAAEGSSRDYVAVNRSHGQLKTDEQGLNTHGASEISEDQMLGDSQSFSRTDSDTTTETAPGKGKLRSGSNTGLDYIKFTWKRLRSHSRQYVSGLHMNRERKAAKQLGFIMAAFILCWIPYFIFFMVIAFCKNCCNEHLHMFTIWLGYINSTLNPLIYPLCNENFKKTFKRILHIRS [HRH1]”: the “plasma membrane surface immunostaining intensity” value was 6190 ± 100.

The series is the same for the next values; noted with them: GPCR class: B.
Turning to “MQPSPPPTELVPSERAVVLLSCALSALGSGLLVATHALWPDLRSRARRLLLFLSLADLLSAASYFYGVLQNFAGPSWDCVLQGALSTFANTSSFFWTVAIALYLYLSIVRAARGPRTDRLLWAFHVVSWGVPLVITVAAVALKKIGYDASDVSVGWCWIDLEAKDHVLWMLLTGKLWEMLAYVLLPLLYLLVRKHINRAHTALSEYRPILSQEHRLLRHSSMADKKLVLIPLIFIGLRVWSTVRFVLTLCGSPAVQTPVLVVLHGIGNTFQGGANCIMFVLCTRAVRTRLFSLCCCCCSSQPPTKSPAGTPKAPAPSKPGESQESQGTPGELPST [GPR157]”, the “plasma membrane surface immunostaining intensity” value was 2320 ± 310.

In the case of “MRPHLSPPLQQLLLPVLLACAAHSTGALPRLCDVLQVLWEEQDQCLQELSREQTGDLGTEQPVPGCEGMWDNISCWPSSVPGRMVEVECPRFLRMLTSRNGSLFRNCTQDGWSETFPRPNLACGVNVNDSSNEKRHSYLLKLKVMYTVGYSSSLVMLLVALGILCAFRRLHCTRNYIHMHLFVSFILRALSNFIKDAVLFSSDDVTYCDAHRAGCKLVMVLFQYCIMANYSWLLVEGLYLHTLLAISFFSERKYLQGFVAFGWGSPAIFVALWAIARHFLEDVGCWDINANASIWWIIRGPVILSILINFILFINILRILMRKLRTQETRGNEVSHYKRLARSTLLLIPLFGIHYIVFAFSPEDAMEIQLFFELALGSFQGLVVAVLYCFLNGEVQLEVQKKWQQWHLREFPLHPVASFSNSTKASHLEQSQGTCRTSII [SCTR]”, the “plasma membrane surface immunostaining intensity” value was 2410 ± 500.

The series is the same for the next values; noted with them: GPCR class: C.
For “MPGKRGLGWWWARLPLCLLLSLYGPWMPSSLGKPKGHPHMNSIRIDGDITLGGLFPVHGRGSEGKPCGELKKEKGIHRLEAMLFALDRINNDPDLLPNITLGARILDTCSRDTHALEQSLTFVQALIEKDGTEVRCGSGGPPIITKPERVVGVIGASGSSVSIMVANILRLFKIPQISYASTAPDLSDNSRYDFFSRVVPSDTYQAQAMVDIVRALKWNYVSTVASEGSYGESGVEAFIQKSREDGGVCIAQSVKIPREPKAGEFDKIIRRLLETSNARAVIIFANEDDIRRVLEAARRANQTGHFFWMGSDSWGSKIAPVLHLEEVAEGAVTILPKRMSVRGFDRYFSSRTLDNNRRNIWFAEFWEDNFHCKLSRHALKKGSHVKKCTNRERIGQDSAYEQEGKVQFVIDAVYAMGHALHAMHRDLCPGRVGLCPRMDPVDGTQLLKYIRNVNFSGIAGNPVTFNENGDAPGRYDIYQYQLRNDSAEYKVIGSWTDHLHLRIERMHWPGSGQQLPRSICSLPCQPGERKKTVKGMPCCWHCEPCTGYQYQVDRYTCKTCPYDMRPTENRTGCRPIPIIKLEWGSPWAVLPLFLAVVGIAATLFVVITFVRYNDTPIVKASGRELSYVLLAGIFLCYATTFLMIAEPDLGTCSLRRIFLGLGMSISYAALLTKTNRIYRIFEQGKRSVSAPRFISPASQLAITFSLISLQLLGICVWFVVDPSHSVVDFQDQRTLDPRFARGVLKCDISDLSLICLLGYSMLLMVTCTVYAIKTRGVPETFNEAKPIGFTMYTTCIVWLAFIPIFFGTSQSADKLYIQTTTLTVSVSLSASVSLGMLYMPKVYIILFHPEQNVPKRKRSLKAVVTAATMSNKFTQKGNFRPNGEAKSELCENLEAPALATKQTYVTYTNHAI [GRM4]”, the “plasma membrane surface immunostaining intensity” value worked out at 6340 ± 76.

The values are drawn from the supplement of paper PMC12458215.
